Assay results taken from article PMC5892938.
The list shows a part of the results. At the low end of the ranking, values are background and their order means little.

These sequences were tested against GST-SBP-SLBP (stem-loop binding protein) (UniProt Q14493) (assay: targeted RNA Bind-n-Seq). Conditions: RBNS binding buffer: 25 mM Tris pH 7.5, 150 mM KCl, 3 mM MgCl2, 0.1% Tween, 0.5 mg/mL BSA, 1 mM DTT; 27 nM protein, 750 pM RNA pool; temperature not stated; high values mean tight binding.
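Also: DESeq read counts versus GST-SBP nonspecific binding control pulldown.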

Sequence	binding signal (log2 fold change)
GGUCACGUCUCAAUCAACUCAUUUCCAGGAGUUUCCUCCUGCAAACUCAACAGCUCGCAGUCAAG	-0.168
GGUCACGUCUCAAUCAACUCUAUGGCAGGAGUUUUCUCCUGGAUAUUCAACAGCUCGCAGUCAAG	-0.0377
GGUCACGUCUCAAUCAACUCCCUCGAGGGGGGGAAAACCCCUUUACCCUCAUAAUCAACAGCUCGCAGUCAAG	0.109
GGUCACGUCUCAAUCAACUCUAUCUCCAGGGAAAGCCCUGGUUAUUUCAACAGCUCGCAGUCAAG	0.00761
GGUCACGUCUCAAUCAACUCAUCGUCAGGAGUUUCCUCCUGCAAAUUCAACAGCUCGCAGUCAAG	0.169
GGUCACGUCUCAAUCAACUCAUUUCCAGGAGUUUACUCCUGUUUUUUCAACAGCUCGCAGUCAAG	-0.102
GGUCACGUCUCAAUCAACUCAUACGAGGGGGGGAAAACCCCUUUGCCCUCAAUCUCAACAGCUCGCAGUCAAG	-0.167
GGUCACGUCUCAAUCAACUCAGUUUCAGGAGUUUCCUCCUGUUUAUUCAACAGCUCGCAGUCAAG	-0.00181
GGUCACGUCUCAAUCAACUCUACUUCCAGGGAAAACCCUGGUUUUUUCAACAGCUCGCAGUCAAG	-0.0647
GGUCACGUCUCAAUCAACUCAUCGUCAGGAGUUUACUCCUGCAUUCUCAACAGCUCGCAGUCAAG	0.239
GGUCACGUCUCAAUCAACUCUAUUUCAGGAGUUUACUCCUGCUUAUUCAACAGCUCGCAGUCAAG	0.0572
GGUCACGUCUCAAUCAACUCUCUAGAGGGGGGGAAAACCCCUUUGCCCUCAUCCUCAACAGCUCGCAGUCAAG	0.441
GGUCACGUCUCAAUCAACUCUAUUCCAGGAGUUUUCUCCUGUUUACUCAACAGCUCGCAGUCAAG	-0.0675
GGUCACGUCUCAAUCAACUCCAACGAGGGGGGGAAAACCCCUUUACCCUCUACCUCAACAGCUCGCAGUCAAG	-0.281
GGUCACGUCUCAAUCAACUCUUUUUCAGGAGUUUACUCCUGCUAUUUCAACAGCUCGCAGUCAAG	0.0813
GGUCACGUCUCAAUCAACUCAAUUCCCAGGGAAACCCCUGGCUUAUUCAACAGCUCGCAGUCAAG	0.145
GGUCACGUCUCAAUCAACUCAUCUUCCAGGGAAAACCCUGGCAUAUUCAACAGCUCGCAGUCAAG	0.0172
GGUCACGUCUCAAUCAACUCAUUCUCCAGGGAAAUCCCUGGUAUUUUCAACAGCUCGCAGUCAAG	-0.181
GGUCACGUCUCAAUCAACUCAUCGUCCAGGGAAACCCCUGGUAAAUUCAACAGCUCGCAGUCAAG	0.112
GGUCACGUCUCAAUCAACUCUACUUCAGGAGUUUACUCCUGUUAUCUCAACAGCUCGCAGUCAAG	0.0944
GGUCACGUCUCAAUCAACUCUUCCCCCAGGGAAAUCCCUGGUAAUCUCAACAGCUCGCAGUCAAG	0.00342
GGUCACGUCUCAAUCAACUCAAUCUCCAGGGAAAUCCCUGGCAUUCUCAACAGCUCGCAGUCAAG	0.193
GGUCACGUCUCAAUCAACUCAUUUUCAGGAGUUUACUCCUGCAAUUUCAACAGCUCGCAGUCAAG	-0.212
GGUCACGUCUCAAUCAACUCUUCGUCAGGAGUUUUCUCCUGUUAACUCAACAGCUCGCAGUCAAG	-0.0266
GGUCACGUCUCAAUCAACUCCCUCGAGGGGGGGAAAACCCCUUUACCCUCUUUCUCAACAGCUCGCAGUCAAG	0.243

Sequence	binding signal (log2 fold change)
GGUCACGUCUCAAUCAACUCUUCCCCCAGGGAAAUCCCUGGCUAACUCAACAGCUCGCAGUCAAG	0.086
GGUCACGUCUCAAUCAACUCUAUCCCCAGGGAAAGCCCUGGCUAUCUCAACAGCUCGCAGUCAAG	0.197
GGUCACGUCUCAAUCAACUCCAACGAGGGGGGGAAAACCCCUUUACCCUCCAAAUCAACAGCUCGCAGUCAAG	0.107
GGUCACGUCUCAAUCAACUCAUCCCCAGGAGUUUUCUCCUGCAAUCUCAACAGCUCGCAGUCAAG	0.068
GGUCACGUCUCAAUCAACUCAAACGAGGGGGGGAAAACCCCUUUGCCCUCAACAUCAACAGCUCGCAGUCAAG	-0.0481
GGUCACGUCUCAAUCAACUCCAAAGAGGGGGGGAAAACCCCUUUGCCCUCCAUAUCAACAGCUCGCAGUCAAG	-0.35
GGUCACGUCUCAAUCAACUCAAUUCCCAGGGAAAACCCUGGCUUAUUCAACAGCUCGCAGUCAAG	-0.333
GGUCACGUCUCAAUCAACUCAUCUUCAGGAGUUUCCUCCUGCUUUCUCAACAGCUCGCAGUCAAG	0.163
GGUCACGUCUCAAUCAACUCUUUCGAGGGGGGGAAAACCCCUUUACCCUCAUAUUCAACAGCUCGCAGUCAAG	-0.338
GGUCACGUCUCAAUCAACUCAAUUUCCAGGGAAACCCCUGGUUUAUUCAACAGCUCGCAGUCAAG	-0.106
GGUCACGUCUCAAUCAACUCUUCUCCCAGGGAAAGCCCUGGUAUAUUCAACAGCUCGCAGUCAAG	-0.0641
GGUCACGUCUCAAUCAACUCAAUCGCAGGAGUUUUCUCCUGGUAACUCAACAGCUCGCAGUCAAG	0.117
GGUCACGUCUCAAUCAACUCCCCAGAGGGGGGGAAAACCCCUUUACCCUCAACCUCAACAGCUCGCAGUCAAG	0.0288
GGUCACGUCUCAAUCAACUCAUUCUCCAGGGAAACCCCUGGUUUUCUCAACAGCUCGCAGUCAAG	-0.0852
GGUCACGUCUCAAUCAACUCUUCCUCAGGAGUUUUCUCCUGCAAUGUCAACAGCUCGCAGUCAAG	0.103
GGUCACGUCUCAAUCAACUCAAAAGAGGGGGGGAAAACCCCUUUACCCUCCGAAUCAACAGCUCGCAGUCAAG	-0.47
GGUCACGUCUCAAUCAACUCAUCCUCCAGGGAAAUCCCUGGCAAUCUCAACAGCUCGCAGUCAAG	-0.028
GGUCACGUCUCAAUCAACUCAGUUUCAGGAGUUUGCUCCUGCUUUCUCAACAGCUCGCAGUCAAG	0.0327
GGUCACGUCUCAAUCAACUCCAAAGAGGGGGGGAAAACCCCUUUACCCUCCGUAUCAACAGCUCGCAGUCAAG	0.125
GGUCACGUCUCAAUCAACUCUUCGUCCAGGGAAAUCCCUGGCAAAUUCAACAGCUCGCAGUCAAG	0.152
GGUCACGUCUCAAUCAACUCCCAAGAGGGGGGGAAAACCCCUUUACCCUCAACCUCAACAGCUCGCAGUCAAG	-0.191
GGUCACGUCUCAAUCAACUCCCUGGAGGGGGGGAAAACCCCUUUACCCUCAUUAUCAACAGCUCGCAGUCAAG	-0.0951
GGUCACGUCUCAAUCAACUCAUUCCCCAGGGAAAACCCUGGCUUUCUCAACAGCUCGCAGUCAAG	-0.0221
GGUCACGUCUCAAUCAACUCUUCGGAGGGGGGGAAAACCCCUUUACCCUCACUAUCAACAGCUCGCAGUCAAG	-0.0809
GGUCACGUCUCAAUCAACUCUUCUCCCAGGGAAAUCCCUGGCUUAUUCAACAGCUCGCAGUCAAG	-0.0502

Sequence	binding signal (log2 fold change)
GGUCACGUCUCAAUCAACUCAUUUUCCAGGGAAAACCCUGGCUUUUUCAACAGCUCGCAGUCAAG	0.00695
GGUCACGUCUCAAUCAACUCUCAAGAGGGGGGGAAAACCCCUUUGCCCUCACACUCAACAGCUCGCAGUCAAG	0.00523
GGUCACGUCUCAAUCAACUCUAUCCCCAGGGAAAACCCUGGUUUAUUCAACAGCUCGCAGUCAAG	-0.165
GGUCACGUCUCAAUCAACUCAACUCCCAGGGAAAGCCCUGGUAAUCUCAACAGCUCGCAGUCAAG	-0.0822
GGUCACGUCUCAAUCAACUCUUCGCCCAGGGAAACCCCUGGUAAUUUCAACAGCUCGCAGUCAAG	-0.151
GGUCACGUCUCAAUCAACUCAUCCCCCAGGGAAAGCCCUGGCAUAUUCAACAGCUCGCAGUCAAG	0.104
GGUCACGUCUCAAUCAACUCUACUUCCAGGGAAAGCCCUGGCUAUGUCAACAGCUCGCAGUCAAG	-0.35
GGUCACGUCUCAAUCAACUCUAUUUCAGGAGUUUACUCCUGUUAUCUCAACAGCUCGCAGUCAAG	-0.0356
GGUCACGUCUCAAUCAACUCUUACGAGGGGGGGAAAACCCCUUUGCCCUCAAUCUCAACAGCUCGCAGUCAAG	0.194
GGUCACGUCUCAAUCAACUCUUCCUCAGGAGUUUUCUCCUGUAUACUCAACAGCUCGCAGUCAAG	-0.128
GGUCACGUCUCAAUCAACUCAUCCUCCAGGGAAAUCCCUGGUAAAUUCAACAGCUCGCAGUCAAG	0.0699
GGUCACGUCUCAAUCAACUCAUCUUCCAGGGAAAUCCCUGGUAUAUUCAACAGCUCGCAGUCAAG	0.125
GGUCACGUCUCAAUCAACUCAUCCUCCAGGGAAAGCCCUGGCUUUCUCAACAGCUCGCAGUCAAG	0.287
GGUCACGUCUCAAUCAACUCUAUGUCAGGAGUUUACUCCUGUUUUCUCAACAGCUCGCAGUCAAG	-0.0412
GGUCACGUCUCAAUCAACUCAACUUCCAGGGAAAUCCCUGGCUUACUCAACAGCUCGCAGUCAAG	-0.131
GGUCACGUCUCAAUCAACUCUACUUCAGGAGUUUACUCCUGCUAUUUCAACAGCUCGCAGUCAAG	-0.0533
GGUCACGUCUCAAUCAACUCCGCAGAGGGGGGGAAAACCCCUUUACCCUCAACAUCAACAGCUCGCAGUCAAG	-0.0352
GGUCACGUCUCAAUCAACUCUCUAGAGGGGGGGAAAACCCCUUUGCCCUCCAUAUCAACAGCUCGCAGUCAAG	0.0573
GGUCACGUCUCAAUCAACUCUUCUCCAGGAGUUUACUCCUGUUUACUCAACAGCUCGCAGUCAAG	0.0333
GGUCACGUCUCAAUCAACUCAUCCUCAGGAGUUUACUCCUGCUAUCUCAACAGCUCGCAGUCAAG	0.0238
GGUCACGUCUCAAUCAACUCUUCUCCCAGGGAAAGCCCUGGUAUUCUCAACAGCUCGCAGUCAAG	-0.184
GGUCACGUCUCAAUCAACUCAUACGAGGGGGGGAAAACCCCUUUGCCCUCAACAUCAACAGCUCGCAGUCAAG	0.15
GGUCACGUCUCAAUCAACUCUUAAGAGGGGGGGAAAACCCCUUUGCCCUCACUUUCAACAGCUCGCAGUCAAG	-0.00531
GGUCACGUCUCAAUCAACUCUAUGUCAGGAGUUUCCUCCUGUUUAUUCAACAGCUCGCAGUCAAG	-0.0552
